The text below walks through data of article PMC12820563.

This is one part of the list. The list includes weakly bound sequences.

This assay deals with T1, MBP-FoxP3dN (UniProt Q99JB6).
T1 sequence: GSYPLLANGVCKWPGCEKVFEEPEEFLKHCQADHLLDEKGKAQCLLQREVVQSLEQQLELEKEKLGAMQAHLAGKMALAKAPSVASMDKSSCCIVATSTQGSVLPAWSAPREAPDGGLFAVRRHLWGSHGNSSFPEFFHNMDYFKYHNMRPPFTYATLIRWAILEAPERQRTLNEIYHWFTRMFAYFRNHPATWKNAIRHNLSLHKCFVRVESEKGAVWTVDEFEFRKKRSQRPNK
Put plainly: PD-seq (MBP pull-down with sequencing). The conditions noted are these: 20 mM Tris-HCl pH 7.5, 100 mM NaCl, 1.5 mM MgCl2, 0.4 uM protein, 0.1 uM dsDNA library, 30 min, room temperature, amylose pull-down; high values mean tight binding; double strand, one strand shown.
For “GATGATTGTTCTCCCAGCTGATGAATTCGTGTTGTCGAGTAAACAAATTTTCCTAATCTTTCTGTTCAAGCGCCATCTAC”, the binding signal (RPM ratio (pull-down/input)) stood at 2.75.
For “GATGATTGTTCTCCCAGCTGATGAATTACACCGGTCGAGTAAACAAATTTTCCTAATCTTTCTGTTCAAGCGCCATCTAC”, the binding signal (RPM ratio (pull-down/input)) was 0.357.
To “GATGATTGTTCTCCCAGCTGATGAATTCGGAAGCTCGAGTAAACAAATTTTCCTAATCTTTCTGTTCAAGCGCCATCTAC” belongs 0.236; to “GATGATTGTTCTCCCAGCTGATGAATTGATCGTCTCGAGTAAACAAATTTTCCTAATCTTTCTGTTCAAGCGCCATCTAC”, 0.559; to “GATGATTGTTCTCCCAGCTGATGAATTGTTTGTTTCGAGTAAACAAATTTTCCTAATCTTTCTGTTCAAGCGCCATCTAC”, 7.87.
To “GATGATTGTTCTCCCAGCTGATGAATTGTCCAACTCGAGTAAACAAATTTTCCTAATCTTTCTGTTCAAGCGCCATCTAC” belongs 0.318; to “GATGATTGTTCTCCCAGCTGATGAATTTCCTAGCTCGAGTAAACAAATTTTCCTAATCTTTCTGTTCAAGCGCCATCTAC”, 0.222.
With “GATGATTGTTCTCCCAGCTGATGAATTATCCCCGTCGAGTAAACAAATTTTCCTAATCTTTCTGTTCAAGCGCCATCTAC” the figure was 0.206.
As for “GATGATTGTTCTCCCAGCTGATGAATTTAATGTATCGAGTAAACAAATTTTCCTAATCTTTCTGTTCAAGCGCCATCTAC”, the binding signal (RPM ratio (pull-down/input)) is 2.21.
With “GATGATTGTTCTCCCAGCTGATGAATTCAGATCGTCGAGTAAACAAATTTTCCTAATCTTTCTGTTCAAGCGCCATCTAC” the figure was 0.324; with “GATGATTGTTCTCCCAGCTGATGAATTCCCAAAGTCGAGTAAACAAATTTTCCTAATCTTTCTGTTCAAGCGCCATCTAC”, 0.162; with “GATGATTGTTCTCCCAGCTGATGAATTATCATGGTCGAGTAAACAAATTTTCCTAATCTTTCTGTTCAAGCGCCATCTAC”, 0.376.
With “GATGATTGTTCTCCCAGCTGATGAATTTATGAAATCGAGTAAACAAATTTTCCTAATCTTTCTGTTCAAGCGCCATCTAC” the figure was 0.396; with “GATGATTGTTCTCCCAGCTGATGAATTCAATGTCTCGAGTAAACAAATTTTCCTAATCTTTCTGTTCAAGCGCCATCTAC”, 1.61; with “GATGATTGTTCTCCCAGCTGATGAATTCGCTGTTTCGAGTAAACAAATTTTCCTAATCTTTCTGTTCAAGCGCCATCTAC”, 2.11.
For the sequence “GATGATTGTTCTCCCAGCTGATGAATTACCAGGGTCGAGTAAACAAATTTTCCTAATCTTTCTGTTCAAGCGCCATCTAC”, the binding signal (RPM ratio (pull-down/input)) is 0.252.
With “GATGATTGTTCTCCCAGCTGATGAATTCTTAAAGTCGAGTAAACAAATTTTCCTAATCTTTCTGTTCAAGCGCCATCTAC” the figure was 0.242; with “GATGATTGTTCTCCCAGCTGATGAATTCGGCGCATCGAGTAAACAAATTTTCCTAATCTTTCTGTTCAAGCGCCATCTAC”, 1.17; with “GATGATTGTTCTCCCAGCTGATGAATTTTAATGTTCGAGTAAACAAATTTTCCTAATCTTTCTGTTCAAGCGCCATCTAC”, 1.76.
To “GATGATTGTTCTCCCAGCTGATGAATTGGTTCCGTCGAGTAAACAAATTTTCCTAATCTTTCTGTTCAAGCGCCATCTAC” belongs 0.298; to “GATGATTGTTCTCCCAGCTGATGAATTTCCAGTATCGAGTAAACAAATTTTCCTAATCTTTCTGTTCAAGCGCCATCTAC”, 0.339; to “GATGATTGTTCTCCCAGCTGATGAATTCAGTGGGTCGAGTAAACAAATTTTCCTAATCTTTCTGTTCAAGCGCCATCTAC”, 0.623.
To “GATGATTGTTCTCCCAGCTGATGAATTCTGCGTTTCGAGTAAACAAATTTTCCTAATCTTTCTGTTCAAGCGCCATCTAC” belongs 4.05.
As to “GATGATTGTTCTCCCAGCTGATGAATTTGGTAGATCGAGTAAACAAATTTTCCTAATCTTTCTGTTCAAGCGCCATCTAC”, the binding signal (RPM ratio (pull-down/input)) amounted to 0.388.
For the sequence “GATGATTGTTCTCCCAGCTGATGAATTTGCAGCATCGAGTAAACAAATTTTCCTAATCTTTCTGTTCAAGCGCCATCTAC”, the binding signal (RPM ratio (pull-down/input)) was found to be 1.6.
Turning to “GATGATTGTTCTCCCAGCTGATGAATTGGGGTGTTCGAGTAAACAAATTTTCCTAATCTTTCTGTTCAAGCGCCATCTAC”, the binding signal (RPM ratio (pull-down/input)) was determined as 0.712.
To “GATGATTGTTCTCCCAGCTGATGAATTAACAGGTTCGAGTAAACAAATTTTCCTAATCTTTCTGTTCAAGCGCCATCTAC” belongs 0.309; to “GATGATTGTTCTCCCAGCTGATGAATTGAAGGGGTCGAGTAAACAAATTTTCCTAATCTTTCTGTTCAAGCGCCATCTAC”, 0.278; to “GATGATTGTTCTCCCAGCTGATGAATTATTGGGCTCGAGTAAACAAATTTTCCTAATCTTTCTGTTCAAGCGCCATCTAC”, 0.598.
For the sequence “GATGATTGTTCTCCCAGCTGATGAATTCGTTATATCGAGTAAACAAATTTTCCTAATCTTTCTGTTCAAGCGCCATCTAC”, the binding signal (RPM ratio (pull-down/input)) amounted to 1.02.
To “GATGATTGTTCTCCCAGCTGATGAATTTATTAGTTCGAGTAAACAAATTTTCCTAATCTTTCTGTTCAAGCGCCATCTAC” belongs 5.47; to “GATGATTGTTCTCCCAGCTGATGAATTCCGTGGATCGAGTAAACAAATTTTCCTAATCTTTCTGTTCAAGCGCCATCTAC”, 0.416.
